# Laboratory results: the supplement of paper PMC8728848
# The other results are listed elsewhere or left out.
# B1: Epa1-NP (Candida glabrata), Q6VBJ0 (protein)
# chain: MILNPALFLNKCVCIYTTLILLLLTNGGYATSSNDISLASKDPTTFPLGCSPDITTPKKGLSMELYSYDFRKKGSYPCWDAAYLDPNYPRTGYKSHRLLAKVDGVTGNINFYYHATKGCTPQLGHLPASYNYPKPLTMTNFTMLLYGYFRPKVTGFHTFTISADDLLFVNFGAGNAFDCCRRDSSADHFGNYQAYAIWGSKTAKDELTVHLDAGVYYPIRLFYNNREYDGALSFTFKTESNENTVSDFSEYFFSLDDTEEGCPGLISYDSSCASVKTSKIIGIDYHTETPNENLVPITKTIYHLGIPCTGTTTTPLCGSGFYDPLANKCVTINTSSTSSVTKTTSHTTSKEVSFHSSISSQKTLIPKSIPSPYGPIKSQSIPTEMETSSEISSSEYAFSDVISTPSHSPYTKKHSSLNSSSYTSTVIHSLTSYSISQGIFSTSLSEQNITSKSSTDKFSTATSMSNNITQSSIIISQFSTNNENYTTTSMHTSSDKISTETLNNSISTTTSILFSNSSTILKNNTTIISSDKDTHYHPVNPTIVCSTNKTEIICASITQPSISNSNNHWSSSVLKFNSTTVRSTLPSSAGSNETSINVPFSSSTESNTSTSSTSTSNSKMVRSTLPSSAGSNETSISVPFSSSTESNTSTSSTSTSNSKMVRSTLPSSAGSNETSINVPFSSSTESNTSTSSTSTSNSKTVRSTPFSSAGIIMTSLSQRNNKSASSYASSNSKCYNTADSCRKVHSTPSYLLTSSYTSEGVDYDCSLVSTKLKINDTNCVNNKHTTKSCLKTSVTTTIPTLEIKTARKSSSNTIGLHSYPTSSPNKSISSAPIIGYISSFKTIKTASPSYQTSDLTTITTITSLNNPGSTAVENTHESNDKSRKTSSNDISSKHSVIKETKDAVESSNKSHQTNTLKCSSIIIASSSHNSYESLGGTTLTLTLSKVYSPQNNDTLPFLEISEVNPSRTVLPESSKMMQYLTSTEERNKTARNTIATNIVSISTFHFEGEGNAIRMGYTQLLLMLIGIIVMNIGT
# What was measured:
# Experiment in all cases: glycan array binding signal (z-score within array); higher = stronger binding
# Conditions in all cases: glycan notation: IUPAC condensed, linker removed
# [1] = target: Fuc(a1-2)[GalNAc(a1-3)]Gal(b1-4)GlcNAc(b1-2)Man(a1-3)[Fuc(a1-2)[GalNAc(a1-3)]Gal(b1-4)GlcNAc(b1-2)Man(a1-6)]Man(b1-4)GlcNAc(b1-4)[Fuc(a1-6)]GlcNAc
# Method in brief: (§1)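 The Consortium for Functional Glycomics database supplied 3228 glycan arrays, of which those lacking an available protein sequence were dropped. The binding signal, a within-array Z-score, was averaged across arrays of the same protein sequence and across linkers. Negative scores can be read as non-binding.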
# [2] = target: Fuc(a1-2)[GalNAc(a1-3)]Gal(b1-4)GlcNAc(b1-3)Gal(b1-4)GlcNAc
# Method in brief: as §1
# [3] = target: Fuc(a1-2)[GalNAc(a1-3)]Gal(b1-4)GlcNAc(b1-3)Gal(b1-4)GlcNAc(b1-3)Gal(b1-4)GlcNAc
# Method in brief: as §1
# [4] = target: Fuc(a1-2)[GalNAc(a1-3)]Gal(b1-4)GlcNAc(b1-3)GalNAc
# Method in brief: as §1
# [5] = target: Fuc(a1-2)[GalNAc(a1-3)]Gal(b1-4)GlcNAc(b1-3)[Fuc(a1-2)[GalNAc(a1-3)]Gal(b1-4)GlcNAc(b1-6)]GalNAc
# Method in brief: as §1
# [6] = target: Fuc(a1-2)[GalNAc(a1-3)]Gal(b1-4)GlcNAc(b1-6)GalNAc
# Method in brief: as §1
# [7] = target: Fuc(a1-2)[GalNAc(a1-3)]Gal(b1-4)[Fuc(a1-3)]GlcNAc
# Method in brief: as §1
# [8] = target: Fuc(a1-2)[GalNAc(a1-3)]Gal(b1-4)[Fuc(a1-3)]GlcNAc(b1-3)GalNAc
# Method in brief: as §1
# [9] = target: Fuc(a1-2)[GalNAc(a1-4)]Gal(b1-4)GlcNAc
# Method in brief: as §1
# [10] = target: Fuc(a1-2)[GalNAc(b1-3)]Gal
# Method in brief: as §1
# [11] = target: Fuc(a1-3)GlcNAc
# Method in brief: as §1
# [12] = target: Fuc(a1-3)[Gal(b1-4)]Glc6S
# Method in brief: as §1
# [13] = target: Fuc(a1-3)[Gal(b1-4)]GlcNAc
# Method in brief: as §1
# [14] = target: Fuc(a1-3)[Gal(b1-4)]GlcNAc(b1-2)Man
# Method in brief: as §1
# [15] = target: Fuc(a1-3)[Gal(b1-4)]GlcNAc(b1-2)Man(a1-3)[Fuc(a1-3)[Gal(b1-4)]GlcNAc(b1-2)Man(a1-6)]Man(b1-4)GlcNAc(b1-4)GlcNAc
# Method in brief: as §1
# [16] = target: Fuc(a1-3)[Gal(b1-4)]GlcNAc(b1-2)Man(a1-3)[Fuc(a1-3)[Gal(b1-4)]GlcNAc(b1-2)Man(a1-6)]Man(b1-4)GlcNAc(b1-4)[Fuc(a1-6)]GlcNAc
# Method in brief: as §1
# [17] = target: Fuc(a1-3)[Gal(b1-4)]GlcNAc(b1-3)Gal(b1-3)[Fuc(a1-4)]GlcNAc
# Method in brief: as §1
# [18] = target: Fuc(a1-3)[Gal(b1-4)]GlcNAc(b1-3)Gal(b1-4)[Fuc(a1-3)]GlcNAc
# Method in brief: as §1
# [19] = target: Fuc(a1-3)[Gal(b1-4)]GlcNAc(b1-3)Gal(b1-4)[Fuc(a1-3)]GlcNAc(b1-3)Gal(b1-4)[Fuc(a1-3)]GlcNAc
# Method in brief: as §1
# [20] = target: Fuc(a1-3)[Gal(b1-4)]GlcNAc(b1-3)GalNAc
# Method in brief: as §1
# [21] = target: Fuc(a1-3)[Gal(b1-4)]GlcNAc(b1-4)Gal(b1-4)[Fuc(a1-3)]GlcNAc
# Method in brief: as §1
# [22] = target: Fuc(a1-3)[Gal(b1-4)]GlcNAc(b1-4)Gal(b1-4)[Fuc(a1-3)]GlcNAc(b1-4)Gal(b1-4)[Fuc(a1-3)]GlcNAc
# Method in brief: as §1
# [23] = target: Fuc(a1-3)[Gal(b1-4)]GlcNAc(b1-6)GalNAc
# Method in brief: as §1
# [24] = target: Fuc(a1-3)[Gal(b1-4)]GlcNAc(b1-6)[Gal(b1-3)GlcNAc(b1-3)]Gal(b1-4)Glc
# Method in brief: as §1
# [25] = target: Fuc(a1-3)[Gal(b1-4)]GlcNAc(b1-6)[Neu5Ac(a2-3)Gal(b1-3)]GalNAc
# Method in brief: as §1
# [26] = target: Fuc(a1-3)[Gal(b1-4)]GlcNAc6S
# Method in brief: as §1
# [27] = target: Fuc(a1-3)[Gal3S(b1-4)]Glc
# Method in brief: as §1
# [28] = target: Fuc(a1-3)[Gal3S(b1-4)]Glc6S
# Method in brief: as §1
# [29] = target: Fuc(a1-3)[Gal3S(b1-4)]GlcNAc
# Method in brief: as §1
# [30] = target: Fuc(a1-3)[Gal3S(b1-4)]GlcNAc6S
# Method in brief: as §1
binder,measurement,setting,value
B1,glycan array binding signal (z-score),[1],-0.287
same,glycan array binding signal (z-score),[2],-0.269
same,glycan array binding signal (z-score),[3],-0.252
same,glycan array binding signal (z-score),[4],-0.292
same,glycan array binding signal (z-score),[5],-0.288
same,glycan array binding signal (z-score),[6],-0.27
same,glycan array binding signal (z-score),[7],-0.283
same,glycan array binding signal (z-score),[8],-0.016
same,glycan array binding signal (z-score),[9],-0.334
same,glycan array binding signal (z-score),[10],-0.272
same,glycan array binding signal (z-score),[11],-0.322
same,glycan array binding signal (z-score),[12],-0.204
same,glycan array binding signal (z-score),[13],-0.288
same,glycan array binding signal (z-score),[14],-0.287
same,glycan array binding signal (z-score),[15],-0.279
same,glycan array binding signal (z-score),[16],-0.197
same,glycan array binding signal (z-score),[17],-0.32
same,glycan array binding signal (z-score),[18],-0.282
same,glycan array binding signal (z-score),[19],-0.29
same,glycan array binding signal (z-score),[20],-0.215
same,glycan array binding signal (z-score),[21],-0.287
same,glycan array binding signal (z-score),[22],-0.324
same,glycan array binding signal (z-score),[23],0.103
same,glycan array binding signal (z-score),[24],-0.157
same,glycan array binding signal (z-score),[25],0.194
same,glycan array binding signal (z-score),[26],-0.093
same,glycan array binding signal (z-score),[27],-0.346
same,glycan array binding signal (z-score),[28],-0.543
same,glycan array binding signal (z-score),[29],-0.341
same,glycan array binding signal (z-score),[30],-0.218
